# Reference: the supplement of paper PMC9446081
# In all, about 39,000 compounds went through this assay and about 220 (0.56%) showed activity. The list shows a part of the results.
# System: Escherichia coli K-12 BW25113
# Assay: relative growth (OD600 normalised to plate interquartile mean) (fraction); higher = less growth inhibition, active = 0.2 or less
# Details: 50 µM; LB; incubation time: overnight (16-24 h)
# 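Also: static incubation at 37 °C against the wild-type strain, values averaged over two biological replicates.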
row,SMILES,relative growth
1,CCCN1CCCc2cc(CCN)ccc21,inactive: 1.01
2,CC(=O)N[C@H]1[C@@H](OCc2ccccc2)O[C@H](C(=O)O)[C@@H](OC(C)=O)[C@@H]1OC(C)=O,inactive: 0.992
3,CO[C@H]1CN(C)C(=O)c2ccc(NC(=O)Nc3cccc(F)c3)cc2OC[C@@H](C)N(C(=O)Nc2c(C)noc2C)C[C@@H]1C,inactive: 1.01
4,Cc1ncc([N+](=O)[O-])n1CCO,inactive: 1.12
5,COc1ccc(S(=O)(=O)Nc2ccc3c(c2)CC(=O)N([C@@H](C)CO)C[C@H](C)[C@H](CN(C)C(=O)NC(C)C)O3)cc1,inactive: 0.99
6,COc1ccc(S(=O)(=O)Nc2ccc3c(c2)C(=O)N([C@H](C)CO)C[C@H](C)[C@@H](CN(C)C(=O)c2ccccc2)OCCCC[C@@H](C)O3)cc1,inactive: 1.01
7,COc1ccc(CN(C)C[C@@H]2OCCCC[C@H](C)Oc3ccc(NS(=O)(=O)c4cccs4)cc3C(=O)N([C@@H](C)CO)C[C@@H]2C)cc1,inactive: 1
8,COCC#Cc1cnc2c(c1)C(=O)N([C@@H](C)CO)C[C@@H](C)[C@@H](CN(C)S(=O)(=O)c1ccccc1)O2,inactive: 1.01
9,C[C@H]1CN([C@@H](C)CO)C(=O)c2c(c3ccccc3n2C)-c2ccccc2CO[C@H]1CN(C)Cc1ccc2c(c1)OCO2,inactive: 0.987
10,CNCCC(Oc1cccc2ccccc12)c1cccs1.Cl (stereo unspecified),inactive: 0.907
11,COc1ccc(CN(C)C[C@H]2OCCCC[C@@H](C)Oc3ccc(NC(=O)Nc4ccc(OC)cc4)cc3C(=O)N([C@H](C)CO)C[C@H]2C)cc1,inactive: 0.951
12,C[C@@H]1CN([C@H](C)CO)C(=O)c2cccc(NC(=O)c3cnccn3)c2O[C@@H]1CN(C)S(=O)(=O)c1cccs1,inactive: 0.993
13,Cc1ccc(S(=O)(=O)Nc2ccc3c(c2)C(=O)N([C@@H](C)CO)C[C@H](C)[C@H](CN(C)C(=O)Nc2ccc(F)cc2)OCCCC[C@@H](C)O3)cc1,inactive: 1.01
14,C[C@@H]1CN([C@H](C)CO)S(=O)(=O)c2ccc(C#Cc3ccc(F)cc3)cc2O[C@H]1CN(C)S(C)(=O)=O,inactive: 1.02
15,COc1ccc(NC(=O)Nc2cccc3c2O[C@H](CN(C)Cc2ccc(Oc4ccccc4)cc2)[C@H](C)CN([C@H](C)CO)C3=O)cc1,inactive: 1.04
16,CC1(C)CC(=O)C=C(NCC(=O)O)C1,inactive: 0.991
17,C[C@H]1CN([C@@H](C)CO)C(=O)c2cccc(NC(=O)C3CCOCC3)c2O[C@@H]1CN(C)Cc1ccc(-c2ccccc2)cc1,inactive: 1.03
18,C[C@H]1CN([C@@H](C)CO)C(=O)c2cccc(NC(=O)Nc3ccc(F)cc3)c2O[C@H]1CN(C)Cc1ccc(Oc2ccccc2)cc1,inactive: 1.04
19,CCN(Cc1ccncc1)C(=O)C(CO)c1ccccc1 (stereo unspecified),inactive: 0.973
20,Cc1ncc(NC(=O)c2cccc(C(F)(F)F)c2)cc1-c1cnc(OC2CCOCC2)c(N2CCOCC2)c1,inactive: 0.996
21,COc1ccc2c3c(ccc2c1)-c1[nH]c2ccccc2c1CC3,inactive: 0.885

row,SMILES,relative growth
1,Cc1cccc(C)c1OC[C@@H](C)N,inactive: 0.984
2,C[C@H](CO)N1C[C@H](C)[C@@H](CN(C)S(=O)(=O)c2ccccc2F)Oc2ncc(C#Cc3ccccc3)cc2C1=O,inactive: 1.02
3,CS(=O)(=O)N1CCCCC1,inactive: 1.01
4,C[C@@H]1CN([C@H](C)CO)C(=O)c2cc(NC(=O)Nc3ccc(C(F)(F)F)cc3)ccc2O[C@@H](C)CCCCO[C@@H]1CN(C)S(=O)(=O)c1ccc(Cl)cc1,inactive: 1.01
5,CC(C)NC(=O)N(C)C[C@@H]1Oc2ccc(NS(=O)(=O)c3cn(C)cn3)cc2CC(=O)N([C@@H](C)CO)C[C@H]1C,inactive: 0.983
6,C[C@H]1CN([C@@H](C)CO)C(=O)c2cc(NC(=O)c3ccncc3)ccc2O[C@@H]1CN(C)S(=O)(=O)c1ccccc1,inactive: 0.983
7,CC(C)CNC(=O)[C@@]1(c2ccc([N+](=O)[O-])cc2)CC(=O)N(CC23CC4CC(CC(C4)C2)C3)[C@@H]1c1ccc(CO)cc1I,inactive: 1
8,C[C@H]1CN([C@@H](C)CO)C(=O)c2cc(NS(=O)(=O)c3cccs3)ccc2O[C@H]1CN(C)Cc1ccc(Oc2ccccc2)cc1,inactive: 0.978
9,CN1CCN(C(=O)[C@@H]2[C@@H](CO)[C@@H]3Cn4c(ccc(C5=CCCC5)c4=O)[C@H]2N3S(C)(=O)=O)CC1,inactive: 0.98
10,CC(=O)n1cc([C@@H]2C=C(C(=O)N3CCN(Cc4ccccc4)CC3)O[C@H](OCc3ccc(COC(=O)NCCCCCC(=O)NO)cc3)C2)c2ccccc21,inactive: 0.999
11,C[C@@H]1CCCCO[C@@H](CN(C)C(=O)Nc2ccc(F)cc2)[C@H](C)CN([C@@H](C)CO)C(=O)c2cc(NC(=O)c3ccncc3)ccc2O1,inactive: 0.958
12,C[C@@H]1CN([C@@H](C)CO)C(=O)c2cccc(N(C)C)c2O[C@H]1CN(C)S(C)(=O)=O,inactive: 0.987
13,CNC(=O)c1c(C)noc1C,inactive: 1
14,C[C@H](CO)N1C[C@H](C)[C@@H](CN(C)C(=O)Nc2ccc(C(F)(F)F)cc2)OCCCC[C@H](C)Oc2ccc(NC(=O)Cc3ccccc3)cc2C1=O,inactive: 1.01
15,C[C@H](CO)N1C[C@H](C)[C@H](CN(C)S(=O)(=O)c2cccc(F)c2)Oc2ncc(C#CC3CCCC3)cc2C1=O,inactive: 1.01
16,Cc1noc(C)c1NC(=O)Nc1ccc2c(c1)CC(=O)N([C@H](C)CO)C[C@H](C)[C@H](CN(C)Cc1ccc(C(F)(F)F)cc1)O2,inactive: 1.03
17,CCc1nc2ccc(C(=O)Nc3cccc(OCC(=O)N(C)C)c3)cn2c1N(C)CCN1CCOCC1,inactive: 0.993
18,C[C@H](CO)N1C[C@H](C)[C@@H](CN(C)S(C)(=O)=O)Oc2c(NC(=O)Nc3ccc4c(c3)OCO4)cccc2C1=O,inactive: 0.991
19,O=C(C[C@H]1C=C[C@H](NC(=O)CN2CCOCC2)[C@H](CO)O1)NCc1cccc(F)c1,inactive: 1.02
20,C[C@H](CO)N1C[C@H](C)[C@@H](CN(C)Cc2ccc(-c3ccccc3)cc2)OCc2ccccc2-c2c(n(C)c3ccccc23)C1=O,inactive: 0.988
21,C[C@@H]1CN([C@H](C)CO)C(=O)c2cc(C#Cc3ccccc3F)cnc2O[C@H]1CN(C)S(=O)(=O)c1ccccc1,inactive: 1.01

row,SMILES,relative growth
1,CC1=C(/C=C/C(C)=C/C=C/C(C)=C/C=C/C=C(C)/C=C/C=C(C)/C=C/C2=C(C)C(=O)C(O)CC2(C)C)C(C)(C)CC(O)C1=O (stereo unspecified),inactive: 0.989
2,C[C@@H]1CN([C@@H](C)CO)C(=O)Cc2cc(NC(=O)CCCN(C)C)ccc2O[C@@H]1CN(C)S(=O)(=O)c1ccc(F)cc1,inactive: 0.999
3,C[C@@H]1CN([C@@H](C)CO)C(=O)c2cc(C#CC3CC3)cnc2O[C@@H]1CN(C)S(=O)(=O)c1cccc(F)c1,inactive: 1.01
4,C[C@@H]1CN([C@H](C)CO)C(=O)c2cccc(NC(=O)CCCCCC(=O)Nc3ccccc3N)c2O[C@@H]1CN(C)S(=O)(=O)c1cn(C)cn1,inactive: 1.03
5,C[C@@H]1CN([C@@H](C)CO)C(=O)CCCn2nncc2CO[C@@H]1CN(C)C(=O)Nc1ccc2c(c1)OCCO2,inactive: 0.997
6,Cn1cnc(CCNC(=O)C[C@@H]2CC[C@@H]3[C@H](COC[C@@H](O)CN3C(=O)C3CC3)O2)c1,inactive: 0.994
7,Cc1ccc(S(=O)(=O)N(C)C[C@@H]2Oc3ccc(NC(=O)C4CC4)cc3C(=O)N([C@@H](C)CO)C[C@H]2C)cc1,inactive: 1.02
8,CC1(C)CCC2(C(=O)O)CCC3(C)C(=CCC4C5(C)CCC(O)C(C)(CO)C5CCC43C)C2C1 (stereo unspecified),inactive: 0.737
9,CO[C@H]1C[C@H](O[C@H]2[C@H](C)[C@@H](O[C@H]3O[C@H](C)C[C@H](N(C)C)[C@H]3O)[C@@H](C)C[C@]3(CO3)C(=O)[C@H](C)[C@@H](O)[C@@H](C)[C@@H](C)OC(=O)[C@@H]2C)O[C@@H](C)[C@@H]1O,inactive: 0.954
10,COc1ccc(NC(=O)Nc2ccc3c(c2)C(=O)N([C@@H](C)CO)C[C@H](C)[C@H](CN(C)C(=O)Cc2ccccc2)OCCCC[C@@H](C)O3)cc1,inactive: 0.99
11,C[C@H](CO)N1C[C@H](C)[C@@H](CN(C)C(=O)Cc2ccccn2)Oc2cc(-c3cccc(C(=O)N(C)C)c3)ccc2S1(=O)=O,inactive: 1.02
12,COc1ccc(S(=O)(=O)Nc2cccc3c2O[C@@H](CN(C)Cc2ccc(-c4ccccc4)cc2)[C@@H](C)CN([C@H](C)CO)C3=O)cc1,inactive: 1.04
13,CC=Cc1ccc2n(c1=O)C[C@H]1[C@H](CO)[C@@H](C(=O)NCC3CC3)[C@@H]2N1S(=O)(=O)c1cn(C)cn1,inactive: 1.01
14,C[N+](C)(C)CCOC(N)=O,inactive: 1.15
15,COc1ccc(CNC(=O)C[C@@H]2CC[C@H]3[C@H](COc4ccc(NC(=O)C5CC5)cc4C(=O)N3C)O2)cc1,inactive: 0.989
16,CC(=O)N1Cc2cc(C(=O)NCc3cccc(F)c3)nc(-c3cccc(C4=CCCCC4)c3)c2[C@@H]1CCO,inactive: 0.94
17,CO[C@H](CN(C)S(=O)(=O)c1ccc(C)cc1)[C@H](C)CN([C@H](C)CO)S(=O)(=O)c1cccc(Cl)c1,inactive: 1.03
18,C[C@@H]1CN([C@@H](C)CO)C(=O)CCCn2cc(nn2)CO[C@@H]1CN(C)S(=O)(=O)c1ccc(-n2cccn2)cc1,inactive: 1.01
19,CN1CCN(C(=O)C[C@@H]2CC[C@H]3[C@@H](COC[C@H](O)CN3Cc3ccc(Oc4ccccc4)cc3)O2)CC1,inactive: 0.984
